Hit rate of the full screen: of about 45,000 compounds, about 200 (0.44%) were called active. Not shown: some 7% with an inconclusive outcome. Calls come from the whole dose curve; as a rule, active = well fitted activation curve with a large enough effect; inconclusive = small, poorly fitted or top-dose-only effect; inactive = no such curve, though single readings can be large or run the other way. This is one part of the list.
Assay: qHTS of TDP-43 Inhibitors: NCGC Sytravon Library Screen; note: nearly all actives have a fitted effect of over 55% in size; for growth rescue (activation): 0% is about no effect
Settings: yeast TDP-43 toxicity rescue, BacTiter-Glo growth, 24 h; series mostly up to 46.1 µM; growth rescue (activation): at the top concentration
Outline: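 TDP-43-expressing yeast, pregrown in raffinose, seeded at OD600 0.02 in galactose medium with compound for 24 hr at 30 deg C. Growth read by BacTiter-Glo luminescence, so rescue of toxicity appears as activation.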
Potency is the fitted concentration of half-maximal effect.

Structure (SMILES)	growth rescue (activation)	Potency
CSc1ccc(CN(C)C(=O)c2cc3ccccc3o2)cc1	inactive: 19.4%	–
COc1cccc(N(C(=O)c2nc3nccc(C)n3n2)c2nc3ccccc3s2)c1	inactive: 1.07%	–
COC(=O)C1=C(N)N(c2ccccc2C(F)(F)F)C2=C(C(=O)CCC2)C1c1ccc2c(c1)OCO2 (stereo unspecified)	inactive: 16.2%	–
Cc1ccc(NC(=O)c2cccs2)cc1S(=O)(=O)N(C)C	inactive: 7.01%	–
CC1CCCC(NC(=O)COC(=O)[C@@H](NC(=O)c2ccco2)C(C)C)C1C (stereo partly specified)	inactive: 3.39%	–
COc1ccc(NC(=O)/C=C/c2cccc(Br)c2)cn1	inactive: 0.79%	–
Cc1ccc(/C=N/N2CCN(Cc3ccc(C)cc3)CC2)cc1	inactive: 8.99%	–
CC(C)C(=O)NC(c1ccccc1)c1cc([N+](=O)[O-])c2cccnc2c1O (stereo unspecified)	inactive: 6.21%	–
COc1ccc(N(C(=O)c2cccnc2)S(=O)(=O)c2cccs2)cc1	inactive: 4.9%	–
COC(=O)c1ccc(OC(=O)c2ccc(OC)c(OC)c2)c(OC)c1	inactive: 13.9%	–
Cc1ccc(CN(C(=O)c2csnn2)C(C(=O)NC2CCCC2)c2ccccn2)cc1 (stereo unspecified)	inactive: 4.16%	–
Nc1cc(=O)[nH]c(SCC(=O)c2ccc(O)cc2O)n1	inactive: 9.61%	–
CCn1nccc1C(=O)Nc1cccc(C)c1C	inactive: 16.2%	–
C/[N+]([O-])=C\C1C(=O)CC(C)(C)CC1=O	inactive: 1.79%	–
COC(=O)c1[nH]c2cc(C)ccc2c1NC(=O)CN1CCOCC1	inactive: 7.92%	–
COC(=O)c1cc2oc3ccccc3c2n1Cc1cc(C)ccc1C	inactive: 4.72%	–
CCCCN(Cc1ccccc1)C(=O)CCN1C(=O)C2C3C=CC(C3)C2C1=O (stereo unspecified)	inactive: 2.25%	–
Cc1nnsc1C(=O)N/N=C/c1ccc2ccccc2c1O	inactive: 27.2%	–
O=c1ccn(-c2cccc(C(F)(F)F)c2)nc1-c1ccn(-c2ccccc2)n1	inactive: -8.62%	–
Nc1cc(C(=O)OCC(=O)N2CCOCC2)ccc1Cl	inactive: 2.45%	–
O=C(/C=C/c1ccc2ccccc2n1)N1CCN(c2ccccc2)CC1	inactive: 37.7%	–
CS(=O)(=O)c1ccccc1C(=O)Nc1cc2c(cc1C(=O)O)OCCCO2	inactive: 14.6%	–
COCCNC(=O)CSc1ccccc1C(=O)NCC1CCCCC1	inactive: -3.26%	–

Structure (SMILES)	growth rescue (activation)	Potency
O=C1Cc2ccccc2C(c2ccc(Cl)cc2)N1 (stereo unspecified)	inactive: 16%	–
O=C(Nc1cccc2ncccc12)c1ccc([N+](=O)[O-])o1	inactive: 16.7%	–
COc1ccccc1NC(=O)CCN1C(=O)c2ccccc2S1(=O)=O	inactive: 14.6%	–
COc1ccc(NC(=O)C(c2ccccc2)N2CCN(c3ccccn3)CC2)cc1Cl (stereo unspecified)	inactive: -3.5%	–
CC1=NNC(=O)C1CCC(=O)N/N=C/c1ccc(Cl)cc1 (stereo unspecified)	inactive: 8.42%	–
O=C(Nc1ccc(C(F)(F)F)cc1)N1CCC(N2CCCCC2)CC1	inactive: 0.731%	–
C/C(=N\Nc1nc2ccccc2[nH]1)c1ccc2c(c1)OCO2	inactive: 0.344%	–
Cc1cc(OCC(=O)N[C@@H](Cc2ccccc2)c2nc3ccccc3[nH]2)ccc1Cl	inactive: 11.5%	–
CCN(CC)S(=O)(=O)c1ccc(-c2csc(C)n2)cc1	inactive: 14.4%	–
CCC(CC)c1nnc(NC(=O)CS(=O)(=O)c2ccc(C)cc2)s1	inactive: -3.23%	–
CCOc1ccc(OCC)c(Nc2nc3ccc(Cl)cc3n3cnnc23)c1	inactive: 15.4%	–
COCC(O)CNc1ccccc1 (stereo unspecified)	inactive: -27.5%	–
O=C(NC1CCCC1)C1CCCN(S(=O)(=O)c2ccc(F)cc2)C1 (stereo unspecified)	inactive: 16.3%	–
CCOC(=O)C1CCN(C(=O)c2cc3c(=O)n4cccc(C)c4nc3s2)CC1	inactive: 21.7%	–
CC1CCCN(C(=O)Cn2nnc(-c3ccc(F)cc3)n2)C1 (stereo unspecified)	inactive: -2.77%	–
Cn1ccnc1C(O)(c1ccccc1)c1nccn1C	inactive: 9.85%	–
CS(=O)(=O)N1CCC(C(=O)N2CCN(c3ccccc3)CC2)CC1	inactive: -4.9%	–
CCC(C)[C@H](NC(=O)Nc1ccc2c(c1)OCCO2)C(=O)OC (stereo partly specified)	inactive: 2.93%	–
CCOC(=O)N(C)c1c(CC)nc2c(OCCC3CCCCC3)cccn12	inactive: 0.826%	–
CC1CN(c2ccc([N+](=O)[O-])c(NCCOc3ccccc3)c2)CCN1 (stereo unspecified)	inactive: 22.9%	–
CCCCC(=O)NNC(=S)NCc1ccccc1	inactive: 1.45%	–
COc1ccccc1NC(=O)C1CCCN1C(=O)Nc1ccc(F)cc1 (stereo unspecified)	inactive: -2.94%	–
COc1ccccc1OC(C)C(=O)Nc1ccc(S(=O)(=O)N2CCN(C)CC2)cc1 (stereo unspecified)	inactive: 16.9%	–

Structure (SMILES)	growth rescue (activation)	Potency
CC(Sc1nnc2c(n1)[nH]c1ccccc12)C(=O)NC1CCCCC1 (stereo unspecified)	inactive: -6.81%	–
C[C@H](NC(=O)c1cc2c(cn1)[nH]c1ccccc12)C(=O)O	inactive: -9.48%	–
O=C(COc1ccccc1[N+](=O)[O-])N/N=C/c1ccc(O)c([N+](=O)[O-])c1	inactive: -11.7%	–
CC(=O)N1CCCN(Cc2nc(C3(c4ccc(C)cc4)CCCC3)no2)CC1	inactive: -0.789%	–
O/N=C/c1ccc(OCc2ccccc2)c(Cl)c1	–	active: 10 µM
N#Cc1cc2cc3c(cc2nc1SCC(=O)N1CCOCC1)OCCO3	inactive: 1.77%	–
CCc1ccccc1NC(=O)CCCN1C(=O)C2CC=CCC2C1=O (stereo unspecified)	inactive: 14.6%	–
Cc1nc2ccccn2c1/C(O)=C1\C(=O)C(=O)N(CCN(C)C)C1c1ccco1 (stereo unspecified)	inactive: 9.3%	–
COC(=O)c1cn(Nc2ncc(C(F)(F)F)cc2Cl)c(=O)c2ccccc12	inactive: 26.9%	–
Clc1ccccc1-c1nnc(-c2cccs2)o1	inactive: 2.32%	–
Cc1ccc(-c2csc3nc(SCC(N)=O)n(Cc4ccccc4)c(=O)c23)cc1	inactive: 0.345%	–
CC(=O)Nc1ccc(S(=O)(=O)N2CCSC2)cc1	inactive: 5.65%	–
CCOC(=O)NC(NC(=S)Nc1ccccc1OC)C(Cl)(Cl)Cl (stereo unspecified)	inactive: 5.96%	–
NN/C(=C\[N+](=O)[O-])Nc1ccccc1	inactive: -6.58%	–
CC1(C)CNC(=O)c2sc(NC(=O)c3ccccc3)nc2C1	inactive: 26.3%	–
COc1cccc(C(=O)N2CCN(C3CCN(Cc4ccccc4)CC3)CC2)c1OC	inactive: -13.2%	–
CC(=O)Nc1cccc(-c2ccnc3c2CC(C(=O)NCC2CCOCC2)O3)c1 (stereo unspecified)	inactive: -4.57%	–
O=C1OCCC1N1C(=O)c2ccccc2S1(=O)=O (stereo unspecified)	inactive: -4.69%	–
CCC(Sc1nc(C)cc(C)n1)C(=O)Nc1ccc(S(N)(=O)=O)cc1 (stereo unspecified)	inactive: 4.01%	–
O=C(NCCCn1ccnc1)c1ccc(Br)cc1	inactive: -6.44%	–
CCOCCCN(C(=O)c1snc(C(N)=O)c1N)C(C(=O)NC(C)(C)C)c1ccc(Cl)cc1 (stereo unspecified)	inactive: -7.06%	–
O=C(c1cccnc1)N1N=C(C2CCCCC2)CC1(O)C(F)(F)F (stereo unspecified)	inactive: -8.93%	–
CCCN(CCC)Cc1cc(=O)oc2cc3c(cc12)CCC3	inactive: 4.33%	–

Structure (SMILES)	growth rescue (activation)	Potency
O=C(CC1C(=O)NCCN1Cc1cccc(Oc2ccccc2)c1)NCc1cccnc1 (stereo unspecified)	inactive: 10.6%	–
OC(c1ccc(Cl)cc1)c1ncc(-c2cccc(F)c2)[nH]1 (stereo unspecified)	inactive: 12.9%	–
O=C1CCNc2ccc(-c3ccccc3)cc21	inactive: 27.7%	–
O=c1[nH]c2ccc(NS(=O)(=O)c3ccc(Cl)cc3)cc2[nH]1	inactive: 3.24%	–
CN1CCN(C(=O)/C(=C/c2ccccc2F)NC(=O)c2ccccc2)CC1	inactive: -16.1%	–
Cc1ccc(C(=O)COC(=O)C(C)N2C(=O)C3C4C=CC(C4)C3C2=O)cc1 (stereo unspecified)	inactive: 2.25%	–
CC(NC(=O)C(=O)N/N=C/c1ccc(Cl)cc1)c1ccccc1 (stereo unspecified)	inactive: -5.49%	–
Cc1nc2scc(C)n2c(=O)c1S(=O)(=O)NCCc1ccc(Cl)cc1	inactive: -0.879%	–
CCN(c1ccccc1)S(=O)(=O)c1ccc(N)c(OC)c1	inactive: 5.39%	–
COc1cc(-c2noc(CCCC(=O)Nc3cccnc3)n2)cc(OC)c1OC	inactive: 13.5%	–
Cc1nc2cc(CO)ccc2s1	inactive: 3.76%	–
COc1ccccc1CC(=O)Nc1ccc(F)cc1F	inactive: 18.4%	–
CCN(CC)S(=O)(=O)c1cc(NC(=O)C(C)N2CCc3ccccc32)ccc1C (stereo unspecified)	inactive: 13.5%	–
CN(C)/C=C(/C(=O)c1ccc(Cl)c(Cl)c1)S(C)(=O)=O	inactive: 13.8%	–
COc1ccc(C(=O)Nc2ccccc2)cc1NC(=O)c1cccs1	inactive: 1.52%	–
CNC(=O)NC(=O)COc1c(F)c(F)cc(F)c1F	inactive: -25.9%	–
CC1(c2ccccc2)NC(=S)N2C1NC(=S)N2c1ccccc1 (stereo unspecified)	inactive: -5.16%	–
COCc1c(C#N)c(NCc2cc(OC)c(OC)c(OC)c2)nc(C)c1[N+](=O)[O-]	inactive: 5.52%	–
CC(C)C(=O)NC(=S)Nc1nnn(C)n1	inactive: -8.39%	–
COc1ccc(-c2nnc(S/C(=C/c3ccc(Cl)cc3)C(=O)O)o2)cc1	inactive: 3.34%	–
Cc1ccc(SCC(=O)n2nc(C)cc2C)cc1	inactive: -13.7%	–
CCOC(=O)c1cnc2ccc(OC)cc2c1Nc1ccc(N2CCN(C)CC2)cc1	inactive: 7.88%	–
Cc1cc(NC(=O)CCC(=O)N(c2ccc(F)cc2)C(C(=O)NC2CCCC2)c2ccccc2)no1 (stereo unspecified)	inactive: 2.63%	–

Structure (SMILES)	growth rescue (activation)	Potency
COc1ccc(Nc2nc(-c3ccc(OC)cc3)c(CCC(=O)O)s2)cc1	inactive: 6.5%	–
CCCn1c(SCC(=O)N(CC)CC)nnc1-c1ccncc1	inactive: 2.93%	–
O=C(CN1CCCC1)OCCCC1CCCCC1	inactive: 2.34%	–
O=C(O)CNC(=S)N(Cc1ccccc1)Cc1cccs1	inactive: 2.31%	–
COc1cccc(-c2nc(N3CCCC3)c3ccccc3n2)c1O	inactive: 20.3%	–
COCCN(C(=O)CCC(=O)Nc1nccs1)C(C(=O)NCCC(C)C)c1ccc(OC)cc1 (stereo unspecified)	inactive: 8.35%	–
Cc1cc(=O)oc2cc(OCC(=O)Nc3cccc(S(=O)(=O)N(C)C)c3)ccc12	inactive: -19.2%	–
Cc1cccc(N2CCN(C(=O)[C@H](C)N3C(=O)C4CC=CCC4C3=O)CC2)c1C (stereo partly specified)	inactive: 17.7%	–
O=C(NC1CCCCC1)C(c1ccc(O)cc1)N(C(=O)c1cnccn1)c1cccc(F)c1 (stereo unspecified)	inactive: 16.3%	–
Cc1cc(C)c(C(=O)CC2(O)C(=O)Nc3ccccc32)cc1C (stereo unspecified)	inactive: 16.3%	–
Cc1ccc(C(=O)NCC(=O)N2CCCCCC2)cc1	inactive: 0.139%	–
C=CCNc1nc(N)c(C(=C(C#N)C#N)c2ccc(Br)cc2)s1	inactive: 5.97%	–
NS(=O)(=O)c1ccc(CCNC(=O)CSc2nc3ccccc3c(=O)n2CCN2CCOCC2)cc1	inactive: 0.201%	–
OCCCNc1ncnc2c1ncn2[C@H]1CN(Cc2ccc3c(c2)OCO3)C[C@@H](CO)O1	inactive: -4.67%	–
Nc1ncc2c(n1)CC(c1ccco1)CC2=O (stereo unspecified)	inactive: 25.9%	–
Cc1ccc(NC(=O)CSc2nc(C)c(C)c(C)n2)c([N+](=O)[O-])c1	inactive: 13.1%	–
Cc1ccc(NC(=O)c2cc(NC(=O)c3ccccc3C(=O)O)ccc2N2CCCCC2)cc1	inactive: 7.47%	–
Cc1cc([N+](=O)[O-])nn1Cc1ccc(C(=O)N/N=C/c2ccccc2)cc1	inactive: -10.5%	–
COc1ccccc1NC(=O)c1ccc(S(=O)(=O)N(C)c2ccccc2)cc1	inactive: -9.18%	–

— PubChem BioAssay AID1347073 (National Center for Advancing Translational Sciences (NCATS), 2019)
